The other results are listed elsewhere or left out.

This experiment has as its target T1, MBP-FoxP1dN (Mus musculus, UniProt P58462 326-579).
T1 sequence: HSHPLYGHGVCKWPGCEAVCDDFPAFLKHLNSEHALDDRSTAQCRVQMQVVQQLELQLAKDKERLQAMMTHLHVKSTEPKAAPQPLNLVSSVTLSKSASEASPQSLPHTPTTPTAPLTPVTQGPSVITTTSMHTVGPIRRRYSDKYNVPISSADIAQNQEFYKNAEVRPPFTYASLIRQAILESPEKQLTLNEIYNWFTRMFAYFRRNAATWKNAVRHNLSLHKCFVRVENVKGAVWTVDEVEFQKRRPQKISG
Nature of the experiment: PD-seq (MBP pull-down with sequencing); 20 mM Tris-HCl pH 7.5, 100 mM NaCl, 1.5 mM MgCl2, 0.4 uM protein, 0.1 uM dsDNA library, 30 min, room temperature, amylose pull-down; high values mean tight binding. To be noted: protein: recombinant; tags: His6-MBP; chain copies: 2; dsDNA, one strand shown. In outline: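 Binding is reads-per-million enrichment of pull-down over input, with replicates pooled. It comes from 30 min room-temperature incubation in Tris pH 7.5 buffer with NaCl and MgCl2 of 0.4 µM His6-MBP-tagged, N-terminally truncated mouse FoxP3 or FoxP1 fragment from E. coli with 0.1 µM Klenow-filled degenerate double-stranded DNA library, followed by amylose resin capture, three washes and Illumina sequencing of the released DNA.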
Take “GATGATTGTTCTCCCAGCTGATGAATTAAAACTGTCGAGTAAACAAATTTTCCTAATCTTTCTGTTCAAGCGCCATCTAC”: the binding signal was 0.933 RPM ratio (pull-down/input).

For “GATGATTGTTCTCCCAGCTGATGAATTAAGATAATCGAGTAAACAAATTTTCCTAATCTTTCTGTTCAAGCGCCATCTAC”, the binding signal is 1.34 RPM ratio (pull-down/input).

With “GATGATTGTTCTCCCAGCTGATGAATTGTGCCAATCGAGTAAACAAATTTTCCTAATCTTTCTGTTCAAGCGCCATCTAC”, the binding signal is 1.11 RPM ratio (pull-down/input).

Turning to “GATGATTGTTCTCCCAGCTGATGAATTAATGTGGTCGAGTAAACAAATTTTCCTAATCTTTCTGTTCAAGCGCCATCTAC”, the binding signal is 1.09 RPM ratio (pull-down/input).

With “GATGATTGTTCTCCCAGCTGATGAATTTAAGTGGTCGAGTAAACAAATTTTCCTAATCTTTCTGTTCAAGCGCCATCTAC”, the binding signal was 0.934 RPM ratio (pull-down/input).

For the sequence “GATGATTGTTCTCCCAGCTGATGAATTGGCACCATCGAGTAAACAAATTTTCCTAATCTTTCTGTTCAAGCGCCATCTAC”, the binding signal was 0.925 RPM ratio (pull-down/input).

“GATGATTGTTCTCCCAGCTGATGAATTGGAATCTTCGAGTAAACAAATTTTCCTAATCTTTCTGTTCAAGCGCCATCTAC”: the binding signal was 0.816 RPM ratio (pull-down/input).

Regarding “GATGATTGTTCTCCCAGCTGATGAATTTTAGAACTCGAGTAAACAAATTTTCCTAATCTTTCTGTTCAAGCGCCATCTAC”, the binding signal is 0.818 RPM ratio (pull-down/input).

On to “GATGATTGTTCTCCCAGCTGATGAATTTCGAGAATCGAGTAAACAAATTTTCCTAATCTTTCTGTTCAAGCGCCATCTAC”, for which the binding signal was 0.908 RPM ratio (pull-down/input).

With “GATGATTGTTCTCCCAGCTGATGAATTGCGAGTATCGAGTAAACAAATTTTCCTAATCTTTCTGTTCAAGCGCCATCTAC”, the binding signal was 1.1 RPM ratio (pull-down/input).

Consider “GATGATTGTTCTCCCAGCTGATGAATTTGACCAGTCGAGTAAACAAATTTTCCTAATCTTTCTGTTCAAGCGCCATCTAC”, for which the binding signal was 0.822 RPM ratio (pull-down/input).

“GATGATTGTTCTCCCAGCTGATGAATTACAATGGTCGAGTAAACAAATTTTCCTAATCTTTCTGTTCAAGCGCCATCTAC”: the binding signal is 1.12 RPM ratio (pull-down/input).

On to “GATGATTGTTCTCCCAGCTGATGAATTTGCTATGTCGAGTAAACAAATTTTCCTAATCTTTCTGTTCAAGCGCCATCTAC”, for which the binding signal is 1.06 RPM ratio (pull-down/input).

For “GATGATTGTTCTCCCAGCTGATGAATTAGCGCTCTCGAGTAAACAAATTTTCCTAATCTTTCTGTTCAAGCGCCATCTAC”, the binding signal is 0.849 RPM ratio (pull-down/input).

Consider “GATGATTGTTCTCCCAGCTGATGAATTTGCGCACTCGAGTAAACAAATTTTCCTAATCTTTCTGTTCAAGCGCCATCTAC”, for which the binding signal was 0.994 RPM ratio (pull-down/input).

For “GATGATTGTTCTCCCAGCTGATGAATTCATGCTCTCGAGTAAACAAATTTTCCTAATCTTTCTGTTCAAGCGCCATCTAC”, the binding signal is 0.888 RPM ratio (pull-down/input).

Take “GATGATTGTTCTCCCAGCTGATGAATTTTAGCAATCGAGTAAACAAATTTTCCTAATCTTTCTGTTCAAGCGCCATCTAC”: the binding signal was 1.31 RPM ratio (pull-down/input).

On to “GATGATTGTTCTCCCAGCTGATGAATTGGTCCCTTCGAGTAAACAAATTTTCCTAATCTTTCTGTTCAAGCGCCATCTAC”, for which the binding signal is 0.888 RPM ratio (pull-down/input).

For “GATGATTGTTCTCCCAGCTGATGAATTCCGATATTCGAGTAAACAAATTTTCCTAATCTTTCTGTTCAAGCGCCATCTAC”, the binding signal is 0.864 RPM ratio (pull-down/input).

Regarding “GATGATTGTTCTCCCAGCTGATGAATTTTCAGTTTCGAGTAAACAAATTTTCCTAATCTTTCTGTTCAAGCGCCATCTAC”, the binding signal is 0.914 RPM ratio (pull-down/input).

Take “GATGATTGTTCTCCCAGCTGATGAATTGGATTCCTCGAGTAAACAAATTTTCCTAATCTTTCTGTTCAAGCGCCATCTAC”: the binding signal was 0.727 RPM ratio (pull-down/input).

For “GATGATTGTTCTCCCAGCTGATGAATTTATTGAATCGAGTAAACAAATTTTCCTAATCTTTCTGTTCAAGCGCCATCTAC”, the binding signal was 1.28 RPM ratio (pull-down/input).

As for “GATGATTGTTCTCCCAGCTGATGAATTTGTACATTCGAGTAAACAAATTTTCCTAATCTTTCTGTTCAAGCGCCATCTAC”, the binding signal was 1.23 RPM ratio (pull-down/input).

Turning to “GATGATTGTTCTCCCAGCTGATGAATTCAACGTTTCGAGTAAACAAATTTTCCTAATCTTTCTGTTCAAGCGCCATCTAC”, the binding signal is 0.889 RPM ratio (pull-down/input).

With “GATGATTGTTCTCCCAGCTGATGAATTACCTTTCTCGAGTAAACAAATTTTCCTAATCTTTCTGTTCAAGCGCCATCTAC”, the binding signal was 0.97 RPM ratio (pull-down/input).

As for “GATGATTGTTCTCCCAGCTGATGAATTCGAGACATCGAGTAAACAAATTTTCCTAATCTTTCTGTTCAAGCGCCATCTAC”, the binding signal is 0.998 RPM ratio (pull-down/input).

In the case of “GATGATTGTTCTCCCAGCTGATGAATTATCTTCGTCGAGTAAACAAATTTTCCTAATCTTTCTGTTCAAGCGCCATCTAC”, the binding signal is 0.914 RPM ratio (pull-down/input).

With “GATGATTGTTCTCCCAGCTGATGAATTTTTGGCGTCGAGTAAACAAATTTTCCTAATCTTTCTGTTCAAGCGCCATCTAC”, the binding signal is 0.913 RPM ratio (pull-down/input).

As to “GATGATTGTTCTCCCAGCTGATGAATTCACTTACTCGAGTAAACAAATTTTCCTAATCTTTCTGTTCAAGCGCCATCTAC”, the binding signal is 0.874 RPM ratio (pull-down/input).

For the sequence “GATGATTGTTCTCCCAGCTGATGAATTCGGACCGTCGAGTAAACAAATTTTCCTAATCTTTCTGTTCAAGCGCCATCTAC”, the binding signal was 0.773 RPM ratio (pull-down/input).

Regarding “GATGATTGTTCTCCCAGCTGATGAATTCGACGGGTCGAGTAAACAAATTTTCCTAATCTTTCTGTTCAAGCGCCATCTAC”, the binding signal is 0.761 RPM ratio (pull-down/input).

Take “GATGATTGTTCTCCCAGCTGATGAATTCCACATTTCGAGTAAACAAATTTTCCTAATCTTTCTGTTCAAGCGCCATCTAC”: the binding signal is 0.944 RPM ratio (pull-down/input).

Source of the values: paper PMC12820563, “FoxP3 forms a head-to-head dimer in vivo and stabilizes its multimerization on adjacent microsatellites”.
